According to PubChem BioAssay AID463173 (ICCB-Longwood Screening Facility, Harvard Medical School, 2010):
In all, about 52,000 compounds went through this assay and about 1,700 (3.3%) were called active. Cut-off read from the data, not from the text of the source: active = survival mostly below about 52% (no sharp cut-off); inactive = mostly above about 56%. Some of the results follow.

These molecules were tested on Wild type (assay: S. aureus survival, RN4220 and DeltatarO strains – OD600, teichoic acid synthesis inhibitors, primary screen (AID 463173)). Settings: S. aureus RN4220 wild type/DeltatarO growth, OD600, 18 h, active compounds read low, screened at 18.75 µg/mL (by protocol).
Cc1nn(C)c(C)c1NC(=O)CSc1nccc(-c2ccc(Cl)cc2)n1 was tested, and the survival was inactive: 100%.
For CCOC(=O)C1CCCN(S(=O)(=O)c2cc(-c3cc(C)no3)ccc2C)C1 (stereo not drawn), the survival was inactive: 71%.
With S=c1nc(C2CC2)[nH]c2ccccc12 the survival was inactive: 94%.
With CCC(=O)N1c2ccc(S(=O)(=O)N3CCN(c4ccccc4Cl)CC3)cc2CC1C (stereo not drawn) the survival was inactive: 81%.
For Cc1ccc(NC(CNS(=O)(=O)c2ccc(Cl)cc2)c2ccccc2)cc1 (stereo not drawn), the survival was inactive: 86%.
Cc1ccc(CNC(=O)C2CCN(c3ncnc4c3nc3n4CCCCC3)CC2)cc1 was tested, and the survival was inactive: 85%.
CCC(C)(C)NC(=O)c1ccc2c(c1)N(CC#N)C(=O)C(C)(C)O2 was tested, and the survival was inactive: 116%.
In the case of Cn1nnc2cc(C(=O)N3CCSCC3)ccc21, the survival is reported as inactive: 106%.
In the case of CC(=O)N(Cc1cc2cc(C)ccc2nc1Cl)C1CCCC1, the survival is reported as inactive: 108%.
With Cc1cccc(C)c1Nc1c(-c2ccccc2O)nc2ncccn12 the survival was inactive: 74%.
In the case of Cc1ccccc1CNC(=O)c1ccc2c(c1)N(Cc1ccccc1)CCS2, the survival is reported as inactive: 88%.
In the case of Cc1cnc(C(=O)Nc2ccc(C(=O)N(C)C3CCCCC3)cc2)cn1, the survival is reported as inactive: 106%.
For O=c1oc2ccc3ccccc3c2cc1-c1nnc(Nc2cccc(F)c2)s1, the survival was inactive: 78%.
With O=C(CCCn1c(=O)c2cccn2c2cccnc21)Nc1ccccc1Br the survival was inactive: 88%.
In the case of CCN1CCOC(=O)C1CC(=O)Nc1cc(Cl)ccc1OC (stereo not drawn), the survival is reported as inactive: 55%.
In the case of Cc1ccc(CNC(=O)Cn2cc(C(=O)c3ccc(Cl)cc3)c(=O)c3ccc(C)nc32)cc1, the survival is reported as inactive: 77%.
For CCCCn1c(=O)c2oc3ccccc3c2n(CC(=O)Nc2ccccc2OC)c1=O, the survival was inactive: 113%.
For CCOC(=O)c1c(NC(=O)/C=C/c2ccc(OCC)cc2)sc2c1CCC2, the survival was inactive: 139%.
For Cc1nn(CC(=O)NCc2ccccc2Br)c(=O)c2cc3occc3n12, the survival was inactive: 123%.
In the case of Cc1ccc(S(=O)(=O)N2CCCc3cc(NC(=O)c4c(F)cccc4F)ccc32)cc1, the survival is reported as inactive: 75%.
With CCCCNC(=O)[C@@H](c1ccccc1)N1Cc2ccccc2C1=O the survival was inactive: 90%.
With CCc1ccc(C2=C(C)C(N3CCC(C(=O)NCc4ccc(C)o4)CC3)=NS2(=O)=O)cc1 the survival was inactive: 63%.
In the case of O=C1/C(=C/c2ccccc2O)CC/C1=C\c1ccccc1O, the survival is reported as inactive: 71%.
For CNc1oc(/C=C/c2cc(OC)c(OC)c(OC)c2)nc1C#N, the survival was inactive: 92%.
With Cc1cccc(OCCCCn2c(C3CC(=O)N(c4ccc(C)cc4C)C3)nc3ccccc32)c1 (stereo not drawn) the survival was inactive: 18%.
With Cc1ccc(Cl)cc1-n1ncc2c(N3CCC(C(N)=O)CC3)ncnc21 the survival was inactive: 85%.
With O=C(CCn1c(=O)c2cccn2c2cccnc21)N1CCN(c2ccc(Cl)cc2)CC1 the survival was inactive: 69%.
For CCOc1ccccc1NC(=O)CSc1nccn1Cc1ccc(F)cc1, the survival was inactive: 84%.
For O=C(OCC1CCCO1)c1ccc2c(c1)N(Cc1ccccc1F)C(=O)c1ccccc1S2(=O)=O (stereo not drawn), the survival was inactive: 68%.
Cc1cccc(CNC(=O)c2cnc3sc(N4CCOCC4)nn3c2=O)c1 was tested, and the survival was inactive: 119%.
Cc1ccccc1C(=O)Nc1ccc(C(=O)OCc2cc(=O)n3c4c(sc3n2)CCCC4)cc1 was tested, and the survival was inactive: 128%.
For Cc1ccc(-n2c(=O)c3ccc(C(=O)NCc4ccccc4Cl)cc3n(CC(N)=O)c2=O)cc1, the survival was inactive: 90%.
In the case of CCOc1nc(Nc2ccc(OC)cc2)nc(N2CCOCC2)n1, the survival is reported as inactive: 109%.
For COc1ccc(NC(=O)C2CCN(C(=O)c3sc4nc[nH]c(=O)c4c3C)CC2)cc1Cl, the survival was inactive: 85%.
CN(CC(=O)Nc1ccc(Br)cc1)S(=O)(=O)c1cccc2nsnc12 was tested, and the survival was inactive: 66%.
With CCC(c1nnnn1C(C)(C)CC)N1CCN(c2ccccc2)CC1 (stereo not drawn) the survival was inactive: 105%.
For O=C(NC1CCCC1)C(c1ccccc1)N(Cc1ccccc1F)C(=O)c1ccco1 (stereo not drawn), the survival was inactive: 118%.
In the case of Cc1cc2oc(C(=O)N(Cc3ccc(N(C)C)cc3)CC3CCCO3)c(C)c2cc1Cl (stereo not drawn), the survival is reported as inactive: 96%.
With CN1C(=O)Cc2cc(S(=O)(=O)CCC(=O)N3CCN(c4ccc(Cl)cc4)CC3)ccc21 the survival was inactive: 93%.
With COc1ccccc1NC(=O)CSc1nc2c(oc3ccccc32)c(=O)n1-c1ccccc1F the survival was inactive: 84%.
For CCOC(=O)C1CCN(c2nc3ccccc3nc2Cl)CC1, the survival was active: -26%.
For COc1ccc(NC(=O)c2oc3ccccc3c2NC(=O)c2cc(C)cc(C)c2)c(OC)c1, the survival was inactive: 79%.
In the case of O=C(CN1C(=O)c2cccc3cccc1c23)Nc1cccc(F)c1, the survival is reported as inactive: 71%.
For CC(=O)Nc1cccc(NC(=O)CSc2nccn2C2CCCC2)c1, the survival was inactive: 83%.
In the case of Cc1cc(C)c(NC(=O)C(=O)NCC(c2cccnc2)N2CCN(c3ccccc3F)CC2)c(C)c1 (stereo not drawn), the survival is reported as inactive: 90%.
CCc1cccc(NC(=O)c2cc3c(s2)-c2ccccc2OC3)c1 was tested, and the survival was inactive: 86%.
In the case of Cc1ccc(N(C(=O)c2ccco2)C(C(=O)NC2CCCC2)c2ccc(N(C)C)cc2)c(C)c1 (stereo not drawn), the survival is reported as inactive: 115%.
With CC1CCCN(CNC(=O)c2ccccc2)C1 (stereo not drawn) the survival was inactive: 105%.
With CN(Cc1ccccc1)c1ccc(-c2nc(-c3ccccc3)no2)cc1[N+](=O)[O-] the survival was inactive: 103%.
C=Cc1ccc(Cn2c(C)c(CNCc3ccc(SC)cc3)c(C(=O)O)c2C)cc1 was tested, and the survival was inactive: 83%.
For Cc1ccccc1NC(=O)CSC1=Nc2ccccc2C2=NC(Cc3ccccc3)C(=O)N12 (stereo not drawn), the survival was inactive: 77%.
With Cc1ccc(OCc2nc(C#N)c(NCCc3ccccc3)o2)cc1 the survival was active: -1%.
With COC(=O)c1ccc2c(=O)n3nc(Nc4cc(OC)ccc4OC)sc3nc2c1 the survival was inactive: 99%.
With Cc1ccc2[nH]c(=O)c3cc(C(=O)N(CCCOC(C)C)Cc4ccco4)sc3c2c1 the survival was inactive: 71%.
COc1ccc(Cl)cc1NC(=O)CSc1nnc2[nH]c(=O)cc(-c3ccccc3)n12 was tested, and the survival was inactive: 58%.
For CCC(Sc1ncc(S(=O)(=O)c2ccc(Cl)cc2)c(=O)[nH]1)C(=O)Nc1ccc(OC)cc1 (stereo not drawn), the survival was inactive: 96%.
With O=C1CN(C(=O)COc2ccccc2)C(c2ccc(F)cc2)c2cc(Br)ccc2N1 (stereo not drawn) the survival was inactive: 62%.
With COC(=O)c1cc2sc(Cl)cc2n1CC(=O)Nc1cc(OC)cc(OC)c1 the survival was inactive: 86%.
